Tested on: C2C12 myotubes
Assay: Glucocorticoid responsive gene induction in C2C12 myotubes (qPCR)
Type: cell-based, mouse
Details: 24 or 48 hours of treatment, compared to untreated; 100 nM M3123 or about 25 nM conjugate; FIGS. 26A-26C
Method: After 24 hours, cells were differentiated using DMEM+2% horse serum (Gibco, catalog #16050130). […] DAR 3.9), 24.4 nM […] (anti-CACNG1 conjugated with budesonide; DAR 4.1) or 25.6 nM of […] (anti-CACNG1 conjugated with budesonide; […] Myotubes were treated for 48 hours. For the 24-hour treatment, myotubes were treated with the same concentrations of reagents after 4 days of differentiation for 24 hours. On completion of treatment, media was removed from cells and 1 ml of Trizol reagent (Invitrogen, catalog #15596026) was added per well, before samples were frozen at -80° C. Total RNA was isolated using MagMAXTM-96 for Microarrays Total RNA Isolation Kit (Ambion by Life Technologies, catalog #AM1839) according to the manufacturer's instructions. Isolated RNA was treated with DNAse I (Thermo Scientific, catalog #EN0525) and reverse transcribed using the SuperScript VILO cDNA synthesis Master Mix (Invitrogen, catalog #11754050). Synthesized cDNA was diluted 10-fold in nuclease free water and then assayed by qPCR for the following genes using the listed TaqMan assays: Klf15 (Mm00517792_m1), Fkbp5 (Mm00487406_m1), Pdk4 (Mm01166879_m1), Ppib (Mm00478295_m1) and Actb (Mm00607939_s1). […] Results were analyzed by the ΔΔCt method, and data were analyzed using 2-way ANOVA with Dunnett's multiple comparisons test comparing treated groups to untreated, with p<0.05 significance.

Row | Molecule | C2C12 myotube expression of Klf15, Pdk4, and Fkbp5
1 | REGN14570-M3123 (conjugate) heavy: QVQLQQWGAGLLKPSATLSRTCAVYGGSFSGYYWNWIRQSPGKGLEWIGEILHSGRTNYNPSLKSRVTISVDTSKNQFSLKLTSVTAADTAVYYCAGRIAARHGWFDPWGQGTLVTVSS[human IgG1 constant region with changes omitted here] light: DIQMTQSPSSVSTSVGDRVTISCRASQDIRKWLAWYQQKPGKAPKLLIYATSSLQSGVPSRFSGSGSGTDFTLTISSLQPEDFATYFCQQANSFPFTFGQGTKLEIKRTVAAPSVFIFPPSDEQLKSGTASVVCLLNNFYPREAKVQWKVDNALQSGNSQESVTEQDSKDSTYSLSSTLTLSKADYEKHKVYACEVTHQGLSSPVTKSFNRGEC | significant increases
2 | REGN14572-M3123 (conjugate) heavy: QVQLVESGGGVVQPGRSLRLSCAASGFTFSTYGMHWVRQAPGKGLEWVAVIWHDGSDKYYVDSVKGRFSIARDNSKNTLYLQMNSLRVEDTGIYYCARRGIRGTVFDHWGLGTLVTVSS[human IgG1 constant region with changes omitted here] light: DIQMTQSPSTLSASVGDRVTLTCRASQSISNKLAWYQQKPGKAPNLLIYKASNLESGVPSRFSGSGSGTEFTLTISSLQPDDFATYYCQQYNSYSWTFGQGTKVEIKRTVAAPSVFIFPPSDEQLKSGTASVVCLLNNFYPREAKVQWKVDNALQSGNSQESVTEQDSKDSTYSLSSTLTLSKADYEKHKVYACEVTHQGLSSPVTKSFNRGEC | significant increases

Reference: patent US20240182561A1, “CALCIUM VOLTAGE-GATED CHANNEL AUXILIARY SUBUNIT GAMMA 1 (CACNG1) BINDING PROTEINS AND CACNG1-MEDIATED DELIVERY TO SKELETAL MUSCLE” (Regeneron Pharmaceuticals, Inc., priority 2022, published 2024)
